In the antibiotic and cytotoxicity screens of Wong et al. (2023) one finds cytotoxicity call data, which are given here for 31 molecules.

Some of the results follow.

The assay deals with HSkMC (human skeletal muscle cells). Description: cytotoxicity call (relative viability < 0.9). Particulars: 10 µM.
`NC(=O)NC1NC(=O)NC1=O` (stereo unspecified): the cytotoxicity call was “inactive”.
Take `Cc1noc(C)c1NC(=O)Nc1ccc2c(c1)C(=O)N([C@@H](C)CO)C[C@H](C)[C@H](CN(C)CC1CCCCC1)OCCCC[C@@H](C)O2`: the cytotoxicity call was “inactive”.
Turning to `C[C@@H]1CN([C@H](C)CO)C(=O)CCCn2cc(nn2)CO[C@@H]1CN(C)C(=O)Nc1ccnc(N2CCOCC2)c1`, the cytotoxicity call was “inactive”.
Turning to `C[C@@H]1CN([C@@H](C)CO)S(=O)(=O)c2ccc(C#Cc3ccccn3)cc2O[C@H]1CN(C)Cc1ccccc1`, the cytotoxicity call was “inactive”.
The same measure for `C[C@H](CO)N1C[C@H](C)[C@H](CN(C)C(=O)Nc2cccc3ccccc23)Oc2ccc(NC(=O)Nc3ccccc3)cc2C1=O`: “inactive”.
With `CC(C)(C)C(=O)C(Oc1ccc(Cl)cc1)n1ccnc1` (stereo unspecified), the cytotoxicity call was “inactive”.
To `CS(=O)(=O)N1C[C@H](O)COC[C@H]2O[C@@H](CC(=O)NCc3ccccc3)CC[C@@H]21` belongs “inactive”.
With `C[C@H](CO)N1C[C@H](C)[C@H](CN(C)S(=O)(=O)c2cccs2)Oc2c(NS(C)(=O)=O)cccc2C1=O`, the cytotoxicity call was “inactive”.
To `O=C(C[C@H]1CC[C@H]2[C@@H](COC[C@@H](O)CN2S(=O)(=O)c2ccc(Cl)cc2)O1)N[C@@H]1CCN(Cc2ccccc2)C1` belongs “inactive”; to `Cc1noc(C)c1S(=O)(=O)Nc1ccc2c(c1)C(=O)N([C@@H](C)CO)C[C@H](C)[C@H](CN(C)C)OCCCC[C@@H](C)O2`, “inactive”.
With `C[C@H]1CN([C@@H](C)CO)S(=O)(=O)c2ccc(C#Cc3ccccn3)cc2O[C@@H]1CN(C)Cc1ccccc1`, the cytotoxicity call is “inactive”.
As to `O=P(O)(O)C(Sc1ccc(Cl)cc1)P(=O)(O)O`, the cytotoxicity call was “inactive”.
To `COc1ccc(S(=O)(=O)Nc2ccc3c(c2)C(=O)N([C@@H](C)CO)C[C@H](C)[C@H](CN(C)CC2CC2)O3)cc1` belongs “inactive”; to `COc1ccc2c3c(n(c2c1)C)[C@H](CO)N(C[C@]13CCN(CC1)C(=O)c1ccncc1)C(=O)C1CCOCC1`, “inactive”; to `C[C@H]1CCCCO[C@@H](CN(C)C(=O)Nc2ccccc2)[C@@H](C)CN([C@@H](C)CO)C(=O)c2cc(NS(=O)(=O)c3cccs3)ccc2O1`, “inactive”.
As for `O=C(C[C@H]1C=C[C@H](NC(=O)CN2CCOCC2)[C@H](CO)O1)NC1CCCCC1`, the cytotoxicity call was “inactive”.
The same measure for `O=C(C[C@H]1CC[C@H]2[C@@H](COC[C@@H](O)CN2C(=O)Nc2ccc(Cl)c(Cl)c2)O1)NCc1ccncc1`: “inactive”; for `COc1cccc(NC(=O)N(C)C[C@@H]2OCc3ccccc3-c3c(n(C)c4ccccc34)C(=O)N([C@@H](C)CO)C[C@@H]2C)c1`: “inactive”; for `C[C@@H]1CN([C@@H](C)CO)S(=O)(=O)c2ccc(C3=CCCCC3)cc2O[C@@H]1CN(C)C(=O)C1CCOCC1`: “inactive”.
Turning to `C[C@H](CO)N1C[C@H](C)[C@H](CN(C)S(=O)(=O)c2cn(C)cn2)Oc2ccc(NC(=O)c3ccncc3)cc2CC1=O`, the cytotoxicity call was “inactive”.
Consider `C[C@@H]1CN([C@H](C)CO)C(=O)c2cccc(NS(=O)(=O)c3ccc(F)cc3)c2O[C@@H]1CN(C)S(=O)(=O)c1ccccc1`, for which the cytotoxicity call is “inactive”.
As for `C[C@H]1CN([C@@H](C)CO)C(=O)c2cc(NC(=O)CCCN(C)C)ccc2O[C@H]1CN(C)S(=O)(=O)c1cccs1`, the cytotoxicity call is “inactive”.
The same measure for `C[C@@H]1CCCCO[C@@H](CN(C)C(=O)Nc2ccccc2)[C@@H](C)CN([C@H](C)CO)C(=O)c2cc(NS(=O)(=O)c3cccs3)ccc2O1`: “inactive”; for `C[C@@H]1CN([C@H](C)CO)C(=O)c2cc(NC(=O)C3CC3)ccc2O[C@H]1CN(C)S(=O)(=O)c1cccs1`: “inactive”.
For the molecule `CC(=O)N(O)CCCCCNC(=O)CCC(=O)N(O)CCCCCNC(=O)CCC(=O)N(O)CCCCCN`, the cytotoxicity call is “inactive”.
With `CN(C)CCCNC(=O)C[C@H]1C=C[C@H](NC(=O)Cc2cccnc2)[C@H](CO)O1`, the cytotoxicity call is “inactive”.
For the molecule `Cc1ccc(S(=O)(=O)Nc2ccc3c(c2)C(=O)N([C@H](C)CO)C[C@@H](C)[C@H](CN(C)C(=O)Nc2ccc4c(c2)OCO4)OCCCC[C@@H](C)O3)cc1`, the cytotoxicity call was “inactive”.
As to `C[C@H](CO)N1C[C@H](C)[C@@H](CN(C)S(=O)(=O)c2cccs2)Oc2c(NS(=O)(=O)c3ccccc3)cccc2C1=O`, the cytotoxicity call is “inactive”.
For the molecule `CN1C(=O)c2cc(NC(=O)c3cscn3)ccc2OC[C@H]2O[C@@H](CC(=O)N3CCOCC3)CC[C@H]21`, the cytotoxicity call was “inactive”.
Consider `CCCOc1ccnc2c1c(=O)n(C)c(=O)n2C`, for which the cytotoxicity call is “inactive”.
`C[C@H](CO)N1C[C@H](C)[C@@H](CN(C)C(=O)C2CCCCC2)OCCCC[C@H](C)Oc2ccc(NC(=O)CCC(F)(F)F)cc2C1=O`: the cytotoxicity call was “inactive”.
